Consider 40 compounds from PubChem BioAssay AID1745853 (National Center for Advancing Translational Sciences (NCATS), 2022).

Common to all, as to experiment: Primary Screen for Target Class Profiling of Small Molecule Inhibitors of Methyltransferases
Assay [1] has as its target Glycine N-methyltransferase (Homo sapiens) (UniProt Q14749). Conditions: purified enzyme, MTase-Glo SAH luminescence; measured here: GNMT inhibition; at 40 µM; stronger effect = lower value. A digest of the protocol: (§1)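 Each enzyme was assayed with SAM and its substrate. SAH formation detected by MTase-Glo luminescence; single-point 40 uM screen[…].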
Assay [2] concerns the target Guanidinoacetate N-methyltransferase (Homo sapiens) (UniProt Q14353). Particulars: purified enzyme, MTase-Glo SAH luminescence; measured here: GAMT inhibition; at 40 µM; stronger effect = lower value. A digest of the protocol:
as §1

The target in assay [3] is Histamine N-methyltransferase (Homo sapiens) (UniProt P50135). Particulars: purified enzyme, MTase-Glo SAH luminescence; measured here: HNMT inhibition; at 40 µM; stronger effect = lower value. In short, it runs like this:
as §1

The target in assay [4] is Nicotinamide N-methyltransferase (Homo sapiens) (UniProt P40261). Particulars: purified enzyme, MTase-Glo SAH luminescence; measured here: NNMT inhibition; at 40 µM; stronger effect = lower value. In short, it runs like this:
as §1

In assay [5] the target is Phenylethanolamine N-methyltransferase (Homo sapiens) (UniProt P11086). Conditions: purified enzyme, MTase-Glo SAH luminescence; measured here: PNMT inhibition; at 40 µM; stronger effect = lower value. A digest of the protocol:
as §1

The list shows a part of the results. These are further read-outs of the screen, such as a control signal, another cell line or another target. No call is given for them.
% is set by controls: 0 for no effect and ±100 for the full control effect.

`CC1=C[C@H]2O[C@@H]3[C@H](O)[C@@H](O)[C@](C)([C@@]2(CO)C[C@@H]1O)[C@]31CO1`: the activity change, negative = inhibition in assay [1] was 7%; in assay [2], 7.65%; in assay [3], 10.3%; in assay [4] it was -4.35%; in assay [5] it was 1.3%.

For `C=C(C)[C@@]12O[C@@H]1[C@@]1(C)C(=CC2=O)CC[C@@H](OC(C)=O)[C@@H]1C`, the activity change, negative = inhibition was -1.22% in assay [1]; -8.74% in assay [2]; -7.43% in assay [3]; -20.9% in assay [4]; -6.48% in assay [5].

For the compound `O=C(Nc1ccccc1F)N1Cc2ccccc2-n2cccc2C1c1cccc(Cl)c1` (centres undefined), the activity change, negative = inhibition in assay [1] is 5.76%; in assay [2], 0%; in assay [3], -1.02%; in assay [4], -0.474%; in assay [5], 3.36%.

Consider `O=C(c1ccc2c(c1)OCO2)N1CCC(C(=O)O)(c2ccccc2)CC1`, for which the activity change, negative = inhibition in assay [1] was -8.71%; in assay [2], -2.11%; in assay [3] it was -0.465%; in assay [4], 2.71%; in assay [5] it was -0.21%.

In the case of `O=C(NCc1ccc(F)cc1)N1Cc2ccccc2-n2cccc2C1c1cccs1` (centres undefined), the activity change, negative = inhibition in assay [1] is 4.37%; in assay [2], 3.9%; in assay [3], -9.86%; in assay [4] it was -12.8%; in assay [5], -4.65%.

For `CC(=O)OCC1=C(C(=O)O)N2C(=O)[C@@H](NC(=O)CCC[C@@H](N)C(=O)O)[C@H]2SC1`, the activity change, negative = inhibition was 1.43% in assay [1]; 4.22% in assay [2]; 2.22% in assay [3]; -8.42% in assay [4]; -1.64% in assay [5].

As to `Cc1cccc(C2c3cccn3-c3ccccc3CN2C(=O)NCCC(C)C)c1` (centres undefined), the activity change, negative = inhibition in assay [1] stood at 13.1%; in assay [2] it was 4.67%; in assay [3], 8.8%; in assay [4], 3.05%; in assay [5], 5.85%.

In the case of `CCC1c2cccn2-c2ccccc2CN1C(=O)Nc1ccccc1Cl` (centres undefined), the activity change, negative = inhibition in assay [1] is -1.52%; in assay [2] it was 1.81%; in assay [3] it was 7.86%; in assay [4], 3.31%; in assay [5], 11.1%.

Turning to `CC1=C[C@H]2O[C@@H]3C[C@H]4OC(=O)/C=C/C=C/C(=O)OCC/C(C)=C/C(=O)OC[C@@]2(CC1)[C@]4(C)[C@]31CO1`, the activity change, negative = inhibition in assay [1] is -1.25%; in assay [2] it was -5.98%; in assay [3], -5.81%; in assay [4], -21.4%; in assay [5], -5.79%.

As to `CCOc1ccccc1NC(=O)N1Cc2ccccc2-n2cccc2C1c1ccccc1` (centres undefined), the activity change, negative = inhibition in assay [1] was 0.134%; in assay [2] it was 2.95%; in assay [3], -7.08%; in assay [4] it was -11.2%; in assay [5] it was -5.88%.

As to `COc1ccc(C2c3cccn3-c3ccccc3CN2C(=O)Nc2ccc(F)c(Cl)c2)cc1OC` (centres undefined), the activity change, negative = inhibition in assay [1] was 12.2%; in assay [2], 1.15%; in assay [3], 3.75%; in assay [4], 2.74%; in assay [5] it was 6.99%.

Consider `COc1ccc(C2c3cccn3-c3ccccc3CN2C(=O)Nc2cc(C)ccc2OC)cc1` (centres undefined), for which the activity change, negative = inhibition was 3.05% in assay [1]; 2.83% in assay [2]; -11.7% in assay [3]; -8.77% in assay [4]; -3.12% in assay [5].

Turning to `C[C@@H]1CCC/C=C/[C@H]2C[C@@H](O)C[C@@H]2[C@@H](O)/C=C/C(=O)O1`, the activity change, negative = inhibition in assay [1] turned out to be 6.86%; in assay [3], 10.6%.

Turning to `CCNC(=O)[C@H]1O[C@@H](n2cnc3c(N)ncnc32)[C@H](O)[C@@H]1O`, the activity change, negative = inhibition in assay [1] is -8.51%; in assay [2], -5.7%; in assay [3], -5.13%; in assay [4], -8.77%; in assay [5], -2.32%.

Regarding `Cc1cccc(C2c3cccn3-c3ccccc3CN2C(=O)Nc2ccccc2F)c1` (centres undefined), the activity change, negative = inhibition in assay [1] is 5.53%; in assay [2], 0%; in assay [3], 0.818%; in assay [4] it was -0.111%; in assay [5], 2.3%.

On to `CN1CCc2cc3c(cc2C1C1OC(=O)c2c1ccc1c2OCO1)OCO3` (centres undefined), for which the activity change, negative = inhibition in assay [1] was -1.08%; in assay [2], 3.88%; in assay [3], 3.2%; in assay [4] it was -11.7%; in assay [5] it was 0.785%.

Take `O=C(Nc1cc(F)ccc1F)N1Cc2ccccc2-n2cccc2C1c1ccccc1` (centres undefined): the activity change, negative = inhibition in assay [1] stood at 7.45%; in assay [2] it was 0%; in assay [3], 12.8%; in assay [4], 6.28%; in assay [5], 8.24%.

On to `OC(CNc1ccccc1)Cn1c2ccc(Br)cc2c2cc(Br)ccc21` (centres undefined), for which the activity change, negative = inhibition was 6.56% in assay [1]; -22.1% in assay [2]; 4.8% in assay [3]; -37.9% in assay [4]; -7.73% in assay [5].

As for `N#Cc1ccccc1-c1cc(-c2ccccn2)cn(-c2ccccc2)c1=O`, the activity change, negative = inhibition in assay [1] is -7.39%; in assay [2] it was -20.5%; in assay [3], -8.82%; in assay [4], -30.6%; in assay [5], -17.6%.

As to `CN1CC2(C1)C(=O)N(C)C(=O)[C@@H]1C[C@@H](O)CN12`, the activity change, negative = inhibition was -0.397% in assay [1]; 2.23% in assay [2]; 1.4% in assay [3]; -5.06% in assay [4]; 13% in assay [5].

As to `Clc1ccc(N2CC3CCC(C2)N3)nn1`, the activity change, negative = inhibition in assay [1] was -10%; in assay [2], 3.24%; in assay [3], -3.88%; in assay [4] it was -5.96%; in assay [5] it was 2.6%.

Turning to `CC(C)c1ccc(C2c3cccn3-c3ccccc3CN2C(=O)Nc2cc(F)ccc2F)cc1` (centres undefined), the activity change, negative = inhibition in assay [1] is -4.14%; in assay [2], 1%; in assay [3], -8.38%; in assay [4] it was -12.3%; in assay [5] it was -4.01%.

On to `CC[C@@H]1/C=C/C=C/C[C@H](C)C(O)[C@](C)(O)C(=O)[C@H](C)C(O)[C@H](C)C(=O)[C@H](C)[C@@H](O)[C@H](C)/C=C/C(=O)O[C@H]2[C@@H](C)[C@@H](CC1)O[C@]1(O[C@H](C[C@H](C)O)[C@H](C)CC1=O)[C@@H]2C` (some centres undefined), for which the activity change, negative = inhibition is 6.47% in assay [1]; 9.1% in assay [2]; 7.89% in assay [3]; -5.21% in assay [4]; 7.33% in assay [5].

For `COc1ccc(C2c3cccn3-c3ccccc3CN2C(=O)Nc2cc(C)cc(C)c2)cc1OC` (centres undefined), the activity change, negative = inhibition in assay [1] is 14.6%; in assay [2] it was 2.95%; in assay [3], 6.96%; in assay [4] it was 5.95%; in assay [5], 9.31%.

Turning to `Cc1cccc(C)c1NC1=NCCCS1`, the activity change, negative = inhibition in assay [1] was 1.57%; in assay [2] it was 6.67%; in assay [3], -12.3%; in assay [4], -2.94%; in assay [5] it was 9.99%.

Turning to `CCCCCN(C)CCC(O)(P(=O)(O)O)P(=O)(O)O`, the activity change, negative = inhibition in assay [1] was -3.54%; in assay [2] it was 1.67%; in assay [3], -1.11%; in assay [4], -6.27%; in assay [5], 2.91%.

With `CC(=O)N(C1CC1)C1CCOC2(CCNCC2)C1` (centres undefined), the activity change, negative = inhibition in assay [1] was -0.84%; in assay [2] it was -2.09%; in assay [3] it was 0.432%; in assay [4], -5.74%; in assay [5], -1.72%.

For the compound `COc1ccccc1NC(=O)N1Cc2ccccc2-n2cccc2C1c1ccc(OC)c(OC)c1` (centres undefined), the activity change, negative = inhibition is 10.5% in assay [1]; 0% in assay [2]; 5.82% in assay [3]; -1.09% in assay [4]; 4.2% in assay [5].

Turning to `CN1C2CCC1CC(OC(c1ccccc1)c1ccccc1N)C2` (centres undefined), the activity change, negative = inhibition is 6.26% in assay [1]; 10.4% in assay [2]; -35% in assay [3]; -4.69% in assay [4]; 8.38% in assay [5].

`CC/C=C/C=C/C1(C)OC(OC)=C(C(=O)C2C(C)C(=O)c3cc(OC)c(O)c(O)c3C2(C)O)C1=O` (centres undefined): the activity change, negative = inhibition was 1.71% in assay [1]; 5.48% in assay [2]; 10.9% in assay [3]; -9.52% in assay [4]; 6.1% in assay [5].

As to `O=C(N[C@H]1CN2CCC1CC2)c1cc2cccc(Cl)c2s1`, the activity change, negative = inhibition is 5.31% in assay [1]; 13.8% in assay [2]; -6.74% in assay [3]; -7.35% in assay [4]; -5.78% in assay [5].

For the compound `COc1cccc(NC(=O)N2Cc3ccccc3-n3cccc3C2c2cccc(Cl)c2)c1` (centres undefined), the activity change, negative = inhibition in assay [1] was 6.6%; in assay [2] it was 1.13%; in assay [3], -2.72%; in assay [4], 0.622%; in assay [5] it was 6.28%.

Consider `NCCc1c[nH]c2ccccc12`, for which the activity change, negative = inhibition in assay [1] was -6.79%; in assay [2], 1.02%; in assay [3] it was -81.5%; in assay [4], -10.8%; in assay [5], -12.1%.

Regarding `Clc1ccc(N2C[C@H]3CC[C@@H](C2)N3)nn1`, the activity change, negative = inhibition in assay [1] was 3.16%; in assay [2] it was 5.3%; in assay [3] it was -3.86%; in assay [4], -9.96%; in assay [5], 1.83%.

Take `CN(C(=O)Cc1ccccc1)C(CN1CCCC1)c1ccccc1` (centres undefined): the activity change, negative = inhibition in assay [1] is -5.11%; in assay [3] it was -4.66%.

As for `O=C(Nc1cccc(Cl)c1)N1Cc2ccccc2-n2cccc2C1c1cccs1` (centres undefined), the activity change, negative = inhibition in assay [1] is 5.86%; in assay [2], 2.17%; in assay [3], 0.416%; in assay [4], -3.99%; in assay [5], 0.897%.

On to `Cc1ccc(CNC(=O)N2Cc3ccccc3-n3cccc3C2c2cccc(C)c2)cc1` (centres undefined), for which the activity change, negative = inhibition in assay [1] stood at 10.7%; in assay [2], 0.393%; in assay [3], 9.17%; in assay [4], 10.7%; in assay [5], 8.65%.

On to `CC(C)[C@H](NC(=O)c1nn(Cc2ccc(F)cc2)c2ccccc12)C(N)=O`, for which the activity change, negative = inhibition in assay [1] is -3.98%; in assay [2], -12.9%; in assay [3], -0.361%; in assay [4], -34.4%; in assay [5], -10.2%.

As for `NCCCCCNC1(c2ccccc2)CCCCC1`, the activity change, negative = inhibition in assay [1] is -2.21%; in assay [2], -0.614%; in assay [3], -47.5%; in assay [4], -14.6%; in assay [5], 0.443%.

In the case of `CN[C@@H]1C[C@H]2O[C@@](C)([C@@H]1OC)n1c3ccccc3c3c4c(c5c6ccccc6n2c5c31)C(=O)NC4`, the activity change, negative = inhibition is -10.3% in assay [1]; -4.25% in assay [2]; -12.7% in assay [3]; -30.6% in assay [4]; -20.3% in assay [5].
